# Assay results: PubChem BioAssay AID596 (National Center for Advancing Translational Sciences (NCATS), 2007)
# Screen size: about 71,000 compounds; about 1,400 (2%) were called active. The shares of active, inactive and inconclusive entries below differ from those in the screen. Calls come from the whole dose curve; as a rule, active = well fitted curve in the direction sought with a large enough effect; inconclusive = small, poorly fitted or top-dose-only effect; inactive = no such curve, though single readings can be large or run the other way. Where the call is inconclusive, the potency comes from a doubtful curve fit.
# Molecular target: Microtubule-associated protein tau (Homo sapiens) (UniProt P10636)
# Assay: qHTS Assay for Tau Filament Binding;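 note: actives lower thioflavin S fluorescence by blocking filaments or displacing dye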
# Settings: recombinant tau filaments, thioflavin S fluorescence, 15 h, filaments grown with octadecylsulfate alongside compound; series mostly up to 57.1 µM; activity change, negative = inhibition: at the top concentration
# Procedure, shortened: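 His-tagged recombinant human tau (exons 2, 3, 10; 1 uM final) fibrillized with 30 uM sodium octadecylsulfate, 15 h at 37 C, in pH 7.4 HEPES buffer with 10 uM thioflavine S and 5 mM DTT. Reduced ThS fluorescence (450/510 nm) marks activity.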
# % is set by controls: 0 for no effect and ±100 for the full control effect; potency is the fitted concentration of half-maximal effect.
# Sequence of UniProt P10636 (P10636 whole entry, looked up): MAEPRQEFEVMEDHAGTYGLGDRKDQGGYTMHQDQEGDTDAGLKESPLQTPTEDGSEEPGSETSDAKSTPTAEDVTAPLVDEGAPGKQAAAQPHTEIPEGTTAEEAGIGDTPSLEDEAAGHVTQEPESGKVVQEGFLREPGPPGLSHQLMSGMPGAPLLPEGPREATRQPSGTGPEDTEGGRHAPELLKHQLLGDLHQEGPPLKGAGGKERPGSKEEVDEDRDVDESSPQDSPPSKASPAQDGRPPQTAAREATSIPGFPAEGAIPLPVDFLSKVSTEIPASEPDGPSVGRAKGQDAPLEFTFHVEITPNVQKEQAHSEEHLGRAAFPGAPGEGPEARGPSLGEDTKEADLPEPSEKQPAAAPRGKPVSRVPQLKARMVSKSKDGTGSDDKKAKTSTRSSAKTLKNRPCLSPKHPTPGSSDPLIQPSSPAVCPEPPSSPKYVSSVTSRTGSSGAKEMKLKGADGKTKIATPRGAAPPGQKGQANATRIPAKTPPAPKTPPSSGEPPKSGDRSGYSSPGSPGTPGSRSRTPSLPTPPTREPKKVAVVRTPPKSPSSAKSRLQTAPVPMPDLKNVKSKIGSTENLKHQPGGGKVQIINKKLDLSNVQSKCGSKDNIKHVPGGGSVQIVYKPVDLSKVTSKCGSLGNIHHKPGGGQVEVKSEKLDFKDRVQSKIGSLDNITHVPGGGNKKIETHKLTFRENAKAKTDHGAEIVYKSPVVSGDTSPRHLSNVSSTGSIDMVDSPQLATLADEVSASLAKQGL
Structure (SMILES),Potency,"activity change, negative = inhibition"
COc1cc2cc3c4c(cc(OC)c(OC)c4c2cc1OC)CCN3C,active: 3.98 µM,–
Nc1cc(=O)[nH]c(SCC(=O)Nc2ccc(Br)cc2)n1,inconclusive: 25.1 µM [decreasing],–
CCOC(=O)C(CC)n1cnc2sc3c(c2c1=O)CCC3 (configuration not stated),inconclusive: 39.8 µM [decreasing],–
Nc1cc(Br)c(N)c(Br)c1,inconclusive: 39.8 µM [decreasing],–
COc1ccccc1N1CCN(CC(O)c2ccc3cc[nH]c3c2)CC1 (configuration not stated),inconclusive: 39.8 µM [decreasing],–
O=C(Oc1ccc2[nH]cc(CCN3C(=O)c4ccccc4C3=O)c2c1)c1ccco1,inconclusive: 31.6 µM [decreasing],–
Cc1c[nH]c(=O)n(CCCN2CCN(c3ccccc3OCC(F)(F)F)CC2)c1=O,inconclusive: 39.8 µM [decreasing],–
Clc1ccc2nc(NC3=NCN(CCN4CCOCC4)CN3)nc(-c3ccccc3)c2c1,active: 7.94 µM,–
CNCC[C@H](Oc1ccccc1OC)c1ccccc1,inconclusive: 39.8 µM [decreasing],–
O=C(NCCN1C(=O)C2C3C=CC(C3)C2C1=O)Nc1ccccc1O (configuration not stated),–,inactive: -2.3%
CS(=O)(=O)c1sc2nc(-c3cccs3)cc(-c3ccccc3)c2c1N,active: 7.94 µM,–
CC(NC(=O)Cc1ccccc1)c1nc2ccccc2[nH]1 (configuration not stated),–,inactive: -5.2%
N#CCC(=O)Nc1sc2c(c1C(N)=O)CCCC2,inconclusive: 15.8 µM [decreasing],–
O=C(OCc1c(Cl)nc2sccn12)c1cc2c(s1)CCCC2,–,inactive: -23.2%
CCCn1c(=N)c(C(=O)NCc2ccc3c(c2)OCO3)cc2c(=O)n3cccc(C)c3nc21,active: 1.58 µM,–
CCn1c(=O)c(C(=O)NCc2ccc(OC)c(OC)c2)c(O)c2ccccc21,–,inactive: 9.4%
Cn1c(=O)c(-c2ccc(F)cc2)nc2cnc(Nc3ccccc3)nc21,inconclusive: 31.6 µM [decreasing],–
CCC/C=C(\CCC)C(NC(=O)c1ccco1)c1ccc(C(=O)OC)cc1 (configuration not stated),–,inactive: -2.2%
O=C1CCc2cc(OCCCCc3nnnn3C3CCCCC3)ccc2N1,inconclusive: 39.8 µM [decreasing],–
Cc1nc2nc(-c3ccco3)nn2c(C)c1Cl,–,inactive: -17.8%
COc1ccc(-n2c(=O)c(CCc3ccccc3)nc3cnc(N(C)C)nc32)cc1,–,inactive: -2.5%

Structure (SMILES),Potency,"activity change, negative = inhibition"
O=C(c1ccncc1)N1CCC2(CC1)CN(c1ccccc1)C2,–,inactive: -12.7%
CCCSc1nnc2nc3c(nn12)c1ccccc1n3C,active: 15.8 µM,–
COc1cccc(C2CC(c3ccccc3OC)n3nc(N)nc3N2)c1 (configuration not stated),–,inactive: 4.3%
CN=c1scc(C)n1/N=C/c1ccc2c(c1)OCO2,inconclusive: 25.1 µM [decreasing],–
CC1(C)C(=O)Nc2ccccc2N1C(=O)COC(=O)C12CC3CC(CC(O)(C3)C1)C2,inconclusive: 25.1 µM [decreasing],–
COCCn1c(=O)c(-c2cccc(C#N)c2)nc2cnc(Oc3cccc(Cl)c3)nc21,inconclusive: 31.6 µM [decreasing],–
CC(C)(C)NC(=O)C(c1ccncc1)N(Cc1cccs1)C(=O)Cn1nnc(-c2cccs2)n1 (configuration not stated),–,inactive: -6.9%
N#CC1=C2SCN(Cc3ccco3)CN2C(=O)CC1c1cccc2ccccc12 (configuration not stated),inconclusive: 3.98 µM [decreasing],–
Cc1ccc2c(c1)C(C)(C)[C@]1(C)NC(=O)CCN21,inconclusive: 39.8 µM [decreasing],–
COc1cccc(CNc2ccc3nc(-c4ccc(N)cc4)c(OC)n3n2)c1,inconclusive: 39.8 µM [decreasing],–
CS(=O)(=O)Nc1ccc([N+](=O)[O-])cc1OC1CCCCC1,inconclusive: 39.8 µM [decreasing],–
Cc1nc2ccccc2nc1N1CCC(C)CC1,inconclusive: 10 µM [decreasing],–
Cc1cc(-c2nnc(-c3ccccc3)c(-c3ccccc3)n2)c(C)o1,active: 15.8 µM,–
Oc1ccc2[nH]ccc2c1,active: 20 µM,–
Cc1cc(Cl)ccc1OC(C)C(=O)Nc1ccccc1N1CCOCC1 (configuration not stated),inconclusive: 3.16 µM [decreasing],–
Cn1c2ccc(F)cc2c2ncn(CCN3CCOCC3)c(=O)c21,–,inactive: 9.4%
O=C(O)c1cc(=O)c2ccc(Cl)cc2[nH]1,inconclusive: 39.8 µM [decreasing],–
COc1ccc2ccccc2c1C1CC(=O)N2CN(Cc3ccco3)CSC2=C1C#N (configuration not stated),active: 7.94 µM,–
c1ccc2nc(C3=NCCN3)cnc2c1,inconclusive: 39.8 µM [decreasing],–
Cc1ccc(-c2nnc(N3CCOCC3)c3ccccc23)cc1S(=O)(=O)NCC1CCCO1 (configuration not stated),–,inactive: -8.4%
Clc1ccc2nc(CN3CCCc4ccccc43)cn2c1,inconclusive: 31.6 µM [decreasing],–
